The structures appear in SMILES notation. Among all 310,000 compounds or so, about 2,200 (0.71%) showed an effect of 50% or more. Effects have a minus sign here. The list shows a part of the results.

human ether-à-go-go-related gene (hERG) potassium channel, sequence (Q12809 whole entry, looked up): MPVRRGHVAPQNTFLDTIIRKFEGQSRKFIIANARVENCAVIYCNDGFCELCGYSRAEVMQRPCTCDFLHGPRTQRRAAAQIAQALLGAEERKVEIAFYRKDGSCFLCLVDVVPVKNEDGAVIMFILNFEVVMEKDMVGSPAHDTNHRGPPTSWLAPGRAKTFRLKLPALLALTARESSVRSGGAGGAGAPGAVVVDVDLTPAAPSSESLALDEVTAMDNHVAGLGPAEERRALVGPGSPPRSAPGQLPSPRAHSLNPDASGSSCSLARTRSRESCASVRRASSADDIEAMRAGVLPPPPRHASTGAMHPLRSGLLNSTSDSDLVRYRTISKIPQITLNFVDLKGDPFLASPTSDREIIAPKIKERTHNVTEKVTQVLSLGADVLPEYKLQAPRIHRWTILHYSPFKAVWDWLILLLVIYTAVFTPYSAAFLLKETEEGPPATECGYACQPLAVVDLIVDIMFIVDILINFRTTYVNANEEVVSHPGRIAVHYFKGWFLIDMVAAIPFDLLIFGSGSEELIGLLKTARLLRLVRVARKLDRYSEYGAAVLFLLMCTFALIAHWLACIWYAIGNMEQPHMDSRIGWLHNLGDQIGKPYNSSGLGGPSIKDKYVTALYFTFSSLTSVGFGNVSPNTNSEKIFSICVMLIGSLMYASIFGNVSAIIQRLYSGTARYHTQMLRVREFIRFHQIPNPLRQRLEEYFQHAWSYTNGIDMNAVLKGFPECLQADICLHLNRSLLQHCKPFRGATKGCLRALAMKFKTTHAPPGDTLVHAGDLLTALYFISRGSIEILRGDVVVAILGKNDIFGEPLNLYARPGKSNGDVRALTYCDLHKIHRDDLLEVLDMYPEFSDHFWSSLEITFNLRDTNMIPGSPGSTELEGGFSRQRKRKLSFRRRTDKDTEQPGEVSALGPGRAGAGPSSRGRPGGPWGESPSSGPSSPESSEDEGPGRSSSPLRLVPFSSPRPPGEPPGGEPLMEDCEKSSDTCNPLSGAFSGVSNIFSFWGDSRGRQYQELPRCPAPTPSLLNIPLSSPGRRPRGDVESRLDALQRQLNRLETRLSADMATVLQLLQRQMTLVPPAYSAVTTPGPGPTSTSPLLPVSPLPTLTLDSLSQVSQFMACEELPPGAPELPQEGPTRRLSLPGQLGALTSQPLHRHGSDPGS

The assay has as its target human ether-à-go-go-related gene (hERG) potassium channel (human, UniProt Q12809). In words: primary screen, population patch clamp on CHO cells stably expressing hERG.
For `CCC(=NCCCn1ccnc1)c1c(O)n(-c2ccc(OC)cc2)c(=O)[nH]c1=O`, the “hERG current change (%, negative = inhibition) at 1uM” value is 13.5%.

Regarding `COc1cc(C(=O)NCc2nnc(SCC(=O)Nc3nc4ccccc4s3)o2)cc(OC)c1OC`, the “hERG current change (%, negative = inhibition) at 1uM” value came to 3.64%.

Turning to `CCOc1ccccc1N(CC)C(=O)Cn1ncc2c(=O)oc3ccccc3c21`, the “hERG current change (%, negative = inhibition) at 1uM” value was determined as 8.12%.

`CC(C)(C)NCC(O)COc1cccc2[nH]c(=O)[nH]c12.Cl` (centres unmarked): the “hERG current change (%, negative = inhibition) at 1uM” value was found to be 9.19%.

`CC(=O)Nc1ccc(Nc2nnc(-c3ccc(O)cc3)c3ccccc23)cc1`: the “hERG current change (%, negative = inhibition) at 1uM” value is 1.76%.

With `COc1ccc(C(=O)N2CCCC(c3ccccc3)C2)cc1` (centres unmarked), the “hERG current change (%, negative = inhibition) at 1uM” value was found to be 14.1%.

`O=C(Nc1ccccc1O)c1ccc([N+](=O)[O-])cc1`: the “hERG current change (%, negative = inhibition) at 1uM” value was found to be 6.93%.

`CC1=C(C(=O)Nc2ccccc2)C(c2ccc(N(C)C)cc2)NC(=O)N1` (centres unmarked): the “hERG current change (%, negative = inhibition) at 1uM” value was determined as 14.2%.

Regarding `O=C(CSc1nnc(-c2ccccc2F)o1)Nc1ccc(N2CCOCC2)cc1`, the “hERG current change (%, negative = inhibition) at 1uM” value stood at 7.84%.

As to `O=C(NC(=S)Nc1ccccc1F)c1ccc(Br)o1`, the “hERG current change (%, negative = inhibition) at 1uM” value is reported as 10.2%.

For `CC(=O)N(c1ccc(C)cc1)c1nc(C)cc(C)c1C#N`, the “hERG current change (%, negative = inhibition) at 1uM” value worked out at 8.3%.

In the case of `C/C(=N\NC(=O)CC#N)c1ccc(Oc2ccccc2)cc1`, the “hERG current change (%, negative = inhibition) at 1uM” value is listed as 0.211%.

Take `CC(=O)Nc1ccc(Oc2ccc(-c3noc(C)n3)cc2)cc1`: the “hERG current change (%, negative = inhibition) at 1uM” value is 3.05%.

On to `COc1cc(C(=O)NC(=S)Nc2ccc3[nH]c(=O)[nH]c3c2)cc(OC)c1OC`, for which the “hERG current change (%, negative = inhibition) at 1uM” value amounted to 12.1%.

Turning to `CCCCCCCCC(=O)N/N=C(\C)c1cccnc1`, the “hERG current change (%, negative = inhibition) at 1uM” value amounted to 13.6%.

For `CCS(=O)(=O)c1nc(S(=O)(=O)c2ccc(Cl)cc2)c(N2CCC(O)CC2)s1`, the “hERG current change (%, negative = inhibition) at 1uM” value came out at 14.5%.

As for `CCn1c(Cc2c(C)[nH]c3ccccc23)nnc1SCC(N)=O`, the “hERG current change (%, negative = inhibition) at 1uM” value is 15.6%.

In the case of `Cc1cccc(NC(=O)COC(=O)c2cccc(S(=O)(=O)N3CCCCCC3)c2)c1`, the “hERG current change (%, negative = inhibition) at 1uM” value was -5.26%.

With `O=C(COC(=O)[C@H](Cc1ccccc1)NC(=O)c1cccs1)Nc1cc(F)ccc1F`, the “hERG current change (%, negative = inhibition) at 1uM” value stood at 6.72%.

With `Cc1ccc(N2CC(c3nc4ccccc4n3C)CC2=O)cc1` (centres unmarked), the “hERG current change (%, negative = inhibition) at 1uM” value is -1.51%.

Take `COc1cc(C)c(NC(=O)c2cc(C3CC3)nc3c2cnn3C(C)C)cc1OC`: the “hERG current change (%, negative = inhibition) at 1uM” value came to 2.51%.

Consider `CCOc1ccc2nc(NC(=O)CS(=O)(=O)c3ccc(C)cc3)sc2c1`, for which the “hERG current change (%, negative = inhibition) at 1uM” value worked out at 7.74%.

For the compound `CC1=C(C(=O)N2CCCC(C(=O)c3cccc(C(F)(F)F)c3)C2)OCCO1` (centres unmarked), the “hERG current change (%, negative = inhibition) at 1uM” value is recorded as 14.7%.

`CS(=O)(=O)N1CCN(C(=O)Cc2ccc(Br)cc2)CC1`: the “hERG current change (%, negative = inhibition) at 1uM” value was 17.6%.

As to `O=C(Nc1c(C(=O)N2CCOCC2)cnn1-c1ccccc1)c1ccccc1F`, the “hERG current change (%, negative = inhibition) at 1uM” value stood at 18%.

Take `C/C(=N\NC(=O)c1ccc(F)cc1)c1ccc(NC(=O)Cc2ccccc2)cc1`: the “hERG current change (%, negative = inhibition) at 1uM” value was -3.9%.

For `CC(C)C(c1nnnn1CCc1ccccc1)N1CCC(C(N)=O)CC1` (centres unmarked), the “hERG current change (%, negative = inhibition) at 1uM” value stood at 10.7%.

Take `O=C(CN1C(=O)c2ccccc2C1=O)NC1CCCCCC1`: the “hERG current change (%, negative = inhibition) at 1uM” value was determined as 11.8%.

With `CCOC(=O)Cc1csc(NC(=O)CCN2C(=O)c3ccccc3C2=O)n1`, the “hERG current change (%, negative = inhibition) at 1uM” value amounted to 1.96%.

Consider `Cc1ccc(S(=O)(=O)Cc2cccc(C(=O)N3CCOCC3)c2)cc1`, for which the “hERG current change (%, negative = inhibition) at 1uM” value is given as 6.39%.

In the case of `O=C(Cc1ccccc1)NC1c2ccccc2-c2ccccc21`, the “hERG current change (%, negative = inhibition) at 1uM” value is on record as 3.07%.

Regarding `CCCC(=O)N1CCN(c2ccc([N+](=O)[O-])cc2Cl)CC1`, the “hERG current change (%, negative = inhibition) at 1uM” value is recorded as -9.24%.

For the compound `Cc1cc(=O)oc(C)c1C(=O)NCc1ccccn1`, the “hERG current change (%, negative = inhibition) at 1uM” value was determined as 10.5%.

With `COc1ccccc1C(c1nnnn1C(C)(C)C)N1CCN(Cc2ccccc2)CC1.Cl` (centres unmarked), the “hERG current change (%, negative = inhibition) at 1uM” value was determined as 6.92%.

As to `COc1ccc(-c2ccc(C#N)c(OC)n2)cc1`, the “hERG current change (%, negative = inhibition) at 1uM” value was found to be 10.8%.

With `COc1ccc(C(=O)C2CCCN(Cc3cccn3-c3ccccn3)C2)c(OC)c1` (centres unmarked), the “hERG current change (%, negative = inhibition) at 1uM” value is reported as -82.9%.

With `COc1ccc(OC(=O)c2cccc([N+](=O)[O-])c2)c(C(=O)/C=C/c2cccs2)c1`, the “hERG current change (%, negative = inhibition) at 1uM” value amounted to 0.856%.

For `COc1cc(NC(=O)C2CCCN(S(=O)(=O)c3ccc4c(c3)CCCN4C(C)=O)C2)cc(OC)c1` (centres unmarked), the “hERG current change (%, negative = inhibition) at 1uM” value came out at 5.64%.

As to `CN(C)c1cccc(C(=O)NNC(=S)NC2CCCC2)c1`, the “hERG current change (%, negative = inhibition) at 1uM” value turned out to be 15.2%.

As to `Cc1nn(Cc2ccc(Cl)cc2Cl)c(C)c1NC(=O)Cn1nc([N+](=O)[O-])c(Cl)c1C`, the “hERG current change (%, negative = inhibition) at 1uM” value is listed as 11.3%.

`COc1ccc(/C=C/C(=O)NC(=S)N2CCN(c3ccccn3)CC2)cc1OC`: the “hERG current change (%, negative = inhibition) at 1uM” value is reported as 11.5%.

For the compound `Cc1ccc(C)c(CN2CCC(CNC(=O)Nc3ccc(F)c(Cl)c3)CC2)c1`, the “hERG current change (%, negative = inhibition) at 1uM” value was -2.57%.

Consider `COc1cccc(C(C(=O)NC2CCCC2)N(Cc2ccco2)C(=O)c2ccco2)c1OC` (centres unmarked), for which the “hERG current change (%, negative = inhibition) at 1uM” value amounted to 5.89%.

Consider `COc1ccc(N2CCN(C(=O)CCS(=O)(=O)c3ccc4c(c3)NC(=O)CO4)CC2)cc1`, for which the “hERG current change (%, negative = inhibition) at 1uM” value is 8.21%.

As to `COc1ccc(CCNc2ccc(C(CC(N)=O)NC(=O)Cc3cccc4ccccc34)cc2[N+](=O)[O-])cc1` (centres unmarked), the “hERG current change (%, negative = inhibition) at 1uM” value was found to be 3.74%.

For the compound `COc1ccc(-c2nc(C)c(C(C)=O)n2O)cc1OC`, the “hERG current change (%, negative = inhibition) at 1uM” value was 7.23%.

`CCCc1cc2c(cc1NC(=O)c1ccc(C(C)(C)C)cc1)OCO2`: the “hERG current change (%, negative = inhibition) at 1uM” value is 0.511%.

Consider `O=C(OCC(=O)N1CCOCC1)c1ccccc1O`, for which the “hERG current change (%, negative = inhibition) at 1uM” value is 13.6%.

With `COc1cc(C(=O)OCC(=O)NC2CCCC2)cc(NC(=O)c2ccco2)c1OC`, the “hERG current change (%, negative = inhibition) at 1uM” value was 2.43%.

Turning to `COC(=O)Nc1snnc1C`, the “hERG current change (%, negative = inhibition) at 1uM” value is on record as 14.4%.

As for `COc1ccc(CN2CCNC(=O)C2CC(=O)N(C)C2CCOCC2)c(F)c1` (centres unmarked), the “hERG current change (%, negative = inhibition) at 1uM” value stood at 9.73%.

Consider `Cn1c(=O)c2c(nc(Br)n2CCSc2nnnn2-c2ccccc2)n(C)c1=O`, for which the “hERG current change (%, negative = inhibition) at 1uM” value is -11.9%.

`Cc1nc(N)nc2c1CCCC2`: the “hERG current change (%, negative = inhibition) at 1uM” value came to 9.49%.

As to `CCOc1ccc(S(=O)(=O)Nc2ccc(OC)nc2)cc1`, the “hERG current change (%, negative = inhibition) at 1uM” value is 11.8%.

For the compound `CC(C)(C)SC(=O)CC1NS(=O)(=O)OCC1NC(=O)OCC(Cl)(Cl)Cl` (centres unmarked), the “hERG current change (%, negative = inhibition) at 1uM” value is recorded as 8.28%.

As for `CCC(=O)NCCc1nc2cc(NC(=O)c3ccc(OC)cc3)ccc2n1C`, the “hERG current change (%, negative = inhibition) at 1uM” value is given as 9.89%.

The values above are taken from paper PMC4336329 (PLoS ONE, 2015).
